From PubChem BioAssay AID2675 (National Center for Advancing Translational Sciences (NCATS), 2010)
Hit rate of the full screen: of about 280,000 compounds, about 100 (0.036%) were called active. The shares of active, inactive and inconclusive entries below differ from those in the screen. Calls follow the shape of the dose curve; as a rule, active = well fitted inhibition curve with a large enough effect in the signal ratio, with a control signal flat (not every such curve was filed as active); inconclusive = small, poorly fitted or top-dose-only effect, or effect the other way, or a change in a side signal; inactive = no such curve, though single readings can be large or run the other way; the % refers to the signal ratio. A potency beside an inconclusive call is a rough fit, not a confirmed value. A note “side channel” means that the fit belongs to a control or component signal, not to the main read-out.

Target: Muscleblind-like protein 1 (Homo sapiens) (UniProt Q9NR56)
Experiment: qHTS Assay for Inhibitors of MBNL1-poly(CUG) RNA binding
Conditions: TR-FRET MBNL1-His/biotin-(CUG)12 binding, 665/545 ratio; series mostly up to 57.5 µM
In short: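 TR-FRET between His-tagged MBNL1 and biotin-(CUG)12 RNA, detected with Tb anti-His antibody (0.055 ng/ul) and streptavidin-XL665 (5 nM), 60 min at room temperature. Compounds titrated 92 nM to 58 uM; 665/545 nm ratio normalized to buffer and complex controls.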
Potency is read from the fitted curve at half-maximal effect; tags tell the direction and shape of the fitted curve or compound fluorescence and quenching.

Sequence of UniProt Q9NR56 (Q9NR56 whole entry, looked up): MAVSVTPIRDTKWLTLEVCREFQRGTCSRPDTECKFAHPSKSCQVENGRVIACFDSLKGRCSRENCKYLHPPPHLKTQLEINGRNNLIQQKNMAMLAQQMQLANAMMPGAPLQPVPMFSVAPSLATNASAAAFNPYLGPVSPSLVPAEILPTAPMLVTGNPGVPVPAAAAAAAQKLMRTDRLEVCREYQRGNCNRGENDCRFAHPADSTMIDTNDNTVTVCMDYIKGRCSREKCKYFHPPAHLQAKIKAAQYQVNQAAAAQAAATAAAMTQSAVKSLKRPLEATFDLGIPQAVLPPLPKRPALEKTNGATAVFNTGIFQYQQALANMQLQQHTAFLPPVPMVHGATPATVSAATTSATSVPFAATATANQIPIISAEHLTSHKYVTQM

SMILES	Potency
O=C(N/N=C/c1cc([N+](=O)[O-])ccc1O)Nc1ccccc1	inconclusive: 25.1 µM [quencher, side channel, partial curve]
CC(=O)N1CCN(C2=Nc3cccc4cccc2c34)CC1	inconclusive: 17.8 µM [quencher, side channel, partial curve]
COc1cc(C(=O)OCC(=O)c2cc(C)n(C)c2C)cc(OC)c1OC	inactive
CCN(CC)CCCNC(=O)c1nn2c(C(F)(F)F)cc(-c3ccccc3)nc2c1Cl	inconclusive: 6.31 µM [quencher, side channel, partial curve]
O=C(c1cccc(Oc2ccc([N+](=O)[O-])cc2Cl)c1)N1CCOCC1	inconclusive: 17.8 µM [quencher, partial curve]
O=C(c1ccc([N+](=O)[O-])cc1)N1CCc2ccccc2C1	inconclusive: 15.8 µM [quencher, side channel, partial curve]
COc1ccc(C2NC(=O)C(=O)/C2=C(\O)c2ccc(Cl)cc2)cc1OC (centres undefined)	inconclusive: 12.6 µM [quencher, side channel, partial curve]
C[C@@H](O)C1NC(=O)[C@H](CCCCN)NC(=O)c2cc([N+](=O)[O-])cc(I)c2OCC[C@@H](C(N)=O)NC1=O (some centres undefined)	inconclusive: 14.1 µM [quencher, side channel, partial curve]
O=[N+]([O-])c1cccc(C=Nc2cc3c(cc2Br)OCCO3)c1	inconclusive: 31.6 µM [quencher, side channel, partial curve, poor fit]
Cc1ccc(Nc2nc(N)[nH]c(=O)c2N=O)cc1	inconclusive: 14.1 µM [quencher, side channel, partial curve]
Cc1cc(C)c2cc(CN(Cc3nnnn3C3CCCCC3)CC3CCCO3)c(=O)[nH]c2c1 (centres undefined)	inconclusive: 39.8 µM [quencher, side channel, single point]
O=c1cc(-c2ccncc2)oc2ccccc12	inconclusive: 39.8 µM [quencher, single point]
O=C(O)c1cc([N+](=O)[O-])ccc1NCc1ccccc1Cl	inconclusive: 100 µM [inhibitor, partial curve]
COc1ccc(CC(O)CC2c3c(cc4c(c3OC)OCO4)CCN2C)cc1 (centres undefined)	inactive
O=C(Nc1ccc(F)cc1)Nc1cc(OCC(F)(F)F)cc(OCC(F)(F)F)c1	inactive
FC(F)(F)c1ccccc1NC(=S)N1CCCC1	inactive
COC(=O)c1cc(C(=O)Nc2cc(C)ccn2)cc([N+](=O)[O-])c1	inconclusive: 2.24 µM [quencher, side channel, full curve]
COc1ccc(N2C(=O)CC(Nc3cccc([N+](=O)[O-])c3)C2=O)cc1 (centres undefined)	inconclusive: 14.1 µM [quencher, side channel, partial curve]
CCOC(=O)c1c(N2C(=O)C3C4C=CC(O4)C3C2=O)sc2c1CCCC2 (centres undefined)	inactive
CCN1/C(=C2/SC(=S)N(NC(C)=O)C2=O)Sc2ccc(Cl)cc21	inconclusive: 14.1 µM [quencher, side channel, partial curve]

SMILES	Potency
O=C(NC1CCCc2ccccc21)C1CCC(CNS(=O)(=O)c2cccc3nsnc23)CC1 (centres undefined)	inconclusive: 2.82 µM [quencher, side channel, full curve]
Cc1cc(NC(=O)c2cc(-c3ccccn3)nc3ccccc23)no1	inconclusive: 15.8 µM [quencher, side channel, single point]
CCn1c(NC(=O)c2ccccc2)nc2ccccc21	inactive
O=C(Nc1cc([N+](=O)[O-])ccc1C(=O)NCCN1CCOCC1)c1ccccc1	inconclusive: 15.8 µM [quencher, partial curve]
CCN(CC)S(=O)(=O)c1ccc(NC(=O)c2ccc(Sc3nncn3C)c([N+](=O)[O-])c2)cc1	inconclusive: 3.16 µM [quencher, full curve]
COc1cccc(NC(=S)NCc2ccc(F)cc2)c1	inactive
CCOc1ccccc1/C=N/NC(=O)c1cccc(S(=O)(=O)N2CCOCC2)c1	inactive
O=[N+]([O-])c1ccc(N2CCN(Cc3ccc([N+](=O)[O-])o3)CC2)cc1	inconclusive: 3.98 µM [quencher, side channel, partial curve]
CC1CCc2c(sc3nc(CN4CCN(S(=O)(=O)c5ccccc5[N+](=O)[O-])CC4)[nH]c(=O)c23)C1 (centres undefined)	inconclusive: 17.8 µM [fluorescent, side channel, single point]
CCC1OC(c2ccc([N+](=O)[O-])cc2)=Nc2ccccc21 (centres undefined)	inconclusive: 12.6 µM [quencher, side channel, partial curve]
O=C1c2ccccc2C(=O)N1CCCCSc1nc2ccccc2o1	inactive
COc1ccc(/C=C2\SC(=O)N(CC(=O)Nc3ccc(O)cc3)C2=O)cc1OC	inconclusive: 63.1 µM [inhibitor, partial curve]
CN(C)c1ccc(/C=C/c2c([N+](=O)[O-])c(=O)n(C)c(=O)n2C)cc1	inconclusive: 11.2 µM [quencher, side channel, partial curve]
O=C(Nc1ccccc1)C1CCCN1C(=O)Nc1ccccc1[N+](=O)[O-] (centres undefined)	inconclusive: 25.1 µM [quencher, side channel, partial curve]
CCSCc1nnc(SCC(=O)Nc2nccs2)n1CC	inactive
Cc1ccc(NC(=O)CN2C(=O)N/C(=C/c3cc(C)n(-c4cccc(C(=O)O)c4)c3C)C2=O)cc1	inactive
O=C(O)c1cccc(-n2cccc2/C=C2/NC(=O)N(c3cccc(Cl)c3)C2=O)c1	inconclusive: 39.8 µM [quencher, side channel, single point]
Cc1cc2cc(C#N)c(NCCNC(=S)NCCCN3CCOCC3)nc2cc1C	inconclusive: 4.47 µM [quencher, side channel, single point]
CC(C)CNC(=O)c1ccccc1NC(=O)c1ccccc1N(C)S(=O)(=O)c1ccccc1	inconclusive: 0.251 µM [fluorescent, side channel, full curve]
